Measured values as given in PubChem BioAssay AID1347043 (National Center for Advancing Translational Sciences (NCATS), 2019).
Hit rate of the full screen: of about 76,000 compounds, about 1,900 (2.5%) were called active. This list was built around the results that the source calls inconclusive (neither active nor inactive); the mix of calls is not that of the screen. Calls come from the whole dose curve; as a rule, active = well fitted inhibition curve with a large enough effect; inconclusive = small, poorly fitted or top-dose-only effect; inactive = flat fitted curve, though single readings scatter. A potency beside an inconclusive call is a rough fit, not a confirmed value.

What follows are molecules tested against Luciferin 4-monooxygenase (Photinus pyralis) (UniProt P08659) (assay: Firefly luciferase inhibition profiling of diverse chemical library using quantitative high-throughput screening). Conditions: purified P. pyralis luciferase, luminescence, biochemical; activity change, negative = inhibition: at 115 µM (top of the series) unless noted.
Outline: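 Biochemical qHTS: compound (6-point titration) added to 10uM D-luciferin plus 10uM ATP in Tris acetate pH 7.5 buffer with Mg, Tween-20 and BSA, then purified enzyme at 10nM; light output imaged.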
% is set by controls: 0 for no effect and ±100 for the full control effect; potency is the fitted concentration of half-maximal effect; tags give direction and shape of the fitted curve.
Note: nearly all actives have a fitted effect of over 65% in size.

Sequence of UniProt P08659 (P08659 whole entry, looked up): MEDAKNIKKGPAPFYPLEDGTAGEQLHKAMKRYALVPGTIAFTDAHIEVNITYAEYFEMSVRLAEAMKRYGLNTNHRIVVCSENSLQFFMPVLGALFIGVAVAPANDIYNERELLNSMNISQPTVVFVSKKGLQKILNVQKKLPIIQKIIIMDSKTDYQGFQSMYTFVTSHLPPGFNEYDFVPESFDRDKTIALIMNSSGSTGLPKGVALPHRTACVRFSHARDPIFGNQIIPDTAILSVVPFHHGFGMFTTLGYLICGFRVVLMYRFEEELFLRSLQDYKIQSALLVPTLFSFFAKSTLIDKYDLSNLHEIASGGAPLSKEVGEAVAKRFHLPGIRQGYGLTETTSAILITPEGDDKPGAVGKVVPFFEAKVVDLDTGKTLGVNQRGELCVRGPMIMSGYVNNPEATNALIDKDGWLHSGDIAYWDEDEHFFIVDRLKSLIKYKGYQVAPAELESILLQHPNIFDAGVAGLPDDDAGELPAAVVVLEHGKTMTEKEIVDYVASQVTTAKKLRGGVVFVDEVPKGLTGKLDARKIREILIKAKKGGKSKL

`COc1ccc(/C=C/c2ccc3c(c2)C(=O)N2C[C@@H](NS(C)(=O)=O)C[C@H]2C(=O)N3)cc1` was tested. Which Potency did it give?
Its Potency is inconclusive: 50.1 µM [inhibitor, partial curve].

With `COc1ccc(C(C)NC(=O)c2noc(-c3ccc4c(c3)OCO4)n2)cc1` (stereo not given) as the molecule, how does the Potency read?
The Potency was inconclusive: 35.5 µM [inhibitor, partial curve].

For `CSc1ccc(NC(=O)C2CCN(C(=O)c3nnn4c3COC(c3ccc(C)cc3)C4)CC2)cc1` (stereo not given), which Potency is on record?
Its Potency is inconclusive: 44.7 µM [inhibitor, partial curve].

For `CC1(C)[C@H](Cc2cc(-c3ccc(F)cc3)on2)C[C@@H]1NC1CCOCC1`, which “activity change, negative = inhibition” value is on record?
Its value is inactive: -0.483% [at 172 µM].

How did the Potency turn out when `O=C(NCCc1ccccc1)N1CCCC(c2nc(CCOc3ccc(F)cc3)no2)C1` (stereo not given) was run?
Its Potency is inconclusive: 50.1 µM [inhibitor, partial curve, poor fit].

Which Potency does the source give for `Cc1ccc(-c2cc3c(=O)n(CCNC(=O)c4ccco4)ccn3n2)c(C)c1` here?
The Potency was active: 8.91 µM.

How did the Potency turn out when `COc1ccc(-c2noc(Nc3cc(OC)cc(OC)c3)n2)cc1` was run?
Its Potency is inconclusive: 20 µM [inhibitor, full curve].

How did the “activity change, negative = inhibition” value turn out when `Cc1nn2c(c1-c1ccccc1OCc1ccccc1)N(Cc1ccc(C(=O)O)s1)CCC2` was run?
The value was inactive: 0.195%.

For `COc1cccc(-c2cn3c(n2)N(C(=O)C2CCCC2)CCC3)c1`, which Potency is on record?
Its Potency is inconclusive: 50.1 µM [inhibitor, partial curve].

How did the “activity change, negative = inhibition” value turn out when `Cc1nncn1C1CCN(S(=O)(=O)c2ccccc2)CC1` was run?
The value was inactive: 12.5%.

`C[C@@H]1C(=O)O[C@H]2[C@H]1CC[C@@]1(C)Cc3sc(NC(=O)Nc4ccc(Oc5ccccc5)cc4)nc3[C@@H](C)[C@H]21` was tested. Which Potency did it give?
The Potency was inconclusive: 50.1 µM [inhibitor, partial curve].

`CC(C)CCNC(=O)c1ccc(-c2ccc(N3CCSCC3)nc2)cc1` was tested. Which Potency did it give?
Its Potency is inconclusive: 44.7 µM [inhibitor, partial curve, poor fit].

With `Cc1ccc(OCc2nc(C3CN(C(=O)c4cc(C)nn4C)C3)no2)cc1` as the molecule, how does the Potency read?
The Potency was active: 39.8 µM.

`COCCOCC(=O)N1CCOc2ccc(CN3CCc4ccccc4C3)cc2C1` was tested. Which “activity change, negative = inhibition” value did it give?
The value was inactive: 4.99%.

Which Potency does the source give for `O=c1c2nc(-c3cccc(O)c3)ccc2ncn1-c1ccccc1` here?
Its Potency is active: 70.8 µM.

`CC(C)(Oc1nn(Cc2cccc(Cl)c2)c2ccccc12)C(=O)NCc1cnccn1` was tested. Which “activity change, negative = inhibition” value did it give?
The value was inactive: -8.63% [at 172 µM].

With `COc1ccc(C(=O)NCCC2CCN(C(=O)Nc3ccc(C)c(F)c3)CC2)cc1` as the molecule, how does the Potency read?
Its Potency is active: 3.55 µM.

How did the Potency turn out when `CC(=O)NC1(C)CCCN(Cc2cccc(-c3ccc4c(ccn4C)c3)c2)C1` (stereo not given) was run?
Its Potency is inconclusive: 22.4 µM [inhibitor, full curve, poor fit].

`Cc1oc(-c2cccc(Cl)c2)nc1CN1CCN(S(N)(=O)=O)CC1` was tested. Which Potency did it give?
Its Potency is inconclusive: 50.1 µM [inhibitor, partial curve].

How did the “activity change, negative = inhibition” value turn out when `O=c1c2nc(-c3ccccc3)ccc2ncn1Cc1ccccn1` was run?
Its value is inactive: 3.51% [at 172 µM].

For `CC(C)N1C(=O)Cc2ccccc2C1C(=O)NCc1ccccc1Br` (stereo not given), which Potency is on record?
The Potency was inconclusive: 50.1 µM [inhibitor, partial curve, poor fit].

For `CCN1c2cc(C(=O)Nc3ccc(Cl)cc3)ccc2C(=O)N2CCCCCC21` (stereo not given), which “activity change, negative = inhibition” value is on record?
Its value is inactive: -10.2%.

`COc1ccc(NC(=O)N2CCc3c(c4ccccc4n3C)C2)cc1` was tested. Which Potency did it give?
The Potency was inconclusive: 39.8 µM [inhibitor, partial curve].

`CCNC(=O)CCc1c(CC)nn(-c2ccccc2)c1Oc1ccccc1F` was tested. Which “activity change, negative = inhibition” value did it give?
Its value is inactive: 1.76%.

Which “activity change, negative = inhibition” value does the source give for `O=C(CN1CCCCCC1)N1CC(Oc2ccccc2-c2nc(C3CC3)no2)C1` here?
The value was inactive: 8.41%.

With `COC(=O)N1CCn2c(nn(-c3ccc(C)cc3)c2=O)C1` as the molecule, how does the Potency read?
The Potency was inconclusive: 56.2 µM [inhibitor, partial curve, poor fit].

How did the Potency turn out when `COc1ccc(CCc2nc3nccc(-c4ccc5c(c4)OCCCO5)n3n2)cc1OC` was run?
Its Potency is inconclusive: 50.1 µM [inhibitor, partial curve].

For `COc1cccc(NC(=O)c2ccc3c(c2)NC(C)(CNc2ccccc2)CO3)c1` (stereo not given), which Potency is on record?
The Potency was inconclusive: 50.1 µM [inhibitor, partial curve].

For `CN(C)Cc1ccc(-c2cc(-c3ccncc3)c3cncn3c2)cc1`, which Potency is on record?
The Potency was inconclusive: 70.8 µM [inhibitor, partial curve].

With `CCNc1ccnc(NC2CCCc3c2cnn3-c2ccc(C)c(C)c2)n1` (stereo not given) as the molecule, how does the Potency read?
Its Potency is inconclusive: 50.1 µM [inhibitor, partial curve].

For `O=C(NCc1c[nH]c2ncccc12)c1ccc(F)cc1`, which Potency is on record?
The Potency was inconclusive: 89.1 µM [inhibitor, partial curve].

For `O=C(O)c1ccc(CN2CCC[C@H]2c2nc(-c3ccc(OC4CCCCC4)nc3)no2)cc1`, which Potency is on record?
The Potency was inconclusive: 50.1 µM [inhibitor, partial curve].

For `COc1cccc(C(O)c2nc(C(=O)Nc3ccc4c(c3)NC(=O)CO4)c(C)o2)c1` (stereo not given), which Potency is on record?
Its Potency is active: 63.1 µM.

With `COc1ccc(-c2noc([C@@H]3C[C@H](NS(=O)(=O)c4ccc(OC)cc4)CN3C)n2)cc1` as the molecule, how does the Potency read?
The Potency was active: 22.4 µM.

Which Potency does the source give for `CC(Cc1cnccn1)Nc1ccc(-c2nc(-c3cccc(Cl)c3)no2)cn1` (stereo not given) here?
The Potency was active: 3.55 µM.

For `NC(=O)C1Cc2ccccc2CN1C(=O)CCc1nc2ccccc2[nH]c1=O` (stereo not given), which “activity change, negative = inhibition” value is on record?
Its value is inactive: 1.34%.

With `CC(C)c1nc(-c2ccc(OC3CCN(S(=O)(=O)Cc4ccccc4)C3)cc2)no1` (stereo not given) as the molecule, how does the Potency read?
The Potency was inconclusive: 15.8 µM [inhibitor, full curve].

How did the Potency turn out when `Cc1c(F)cccc1NC(=O)C1CCN(C(=O)c2ncn3c2COC(c2ccc(F)cc2)C3)CC1` (stereo not given) was run?
Its Potency is inconclusive: 50.1 µM [inhibitor, partial curve, poor fit].

How did the Potency turn out when `CCNC(=O)C1C(c2cccc(NC(=O)c3cccc(C)c3)c2)OC(=O)N1Cc1cccc(Cl)c1` (stereo not given) was run?
Its Potency is inconclusive: 39.8 µM [inhibitor, partial curve].

How did the Potency turn out when `O=C(NC[C@H]1Cn2c(-c3ccc4c(c3)OCO4)cnc2CO1)c1ccc2c(c1)OCO2` was run?
Its Potency is inconclusive: 79.4 µM [inhibitor, partial curve].

For `COc1ccc(-c2ccc3c(c2)C(=O)N2CCN(C(=O)c4cnccn4)C[C@H]2C(=O)N3)cc1`, which Potency is on record?
The Potency was inconclusive: 89.1 µM [inhibitor, single point].

With `O=C(Cc1ccccc1Cl)N1CCC(n2cc(-c3nc(-c4ccccc4)no3)nn2)CC1` as the molecule, how does the “activity change, negative = inhibition” value read?
The value was inactive: -2.05%.

With `COc1cccc(-c2noc(Nc3cc(OC)c(OC)c(OC)c3)n2)c1` as the molecule, how does the Potency read?
The Potency was inconclusive: 50.1 µM [inhibitor, partial curve].

For `CCOc1ccccc1NC(=O)C1CCN(C(=O)c2ncn3c2COC(c2ccc(F)cc2)C3)CC1` (stereo not given), which Potency is on record?
The Potency was inconclusive: 44.7 µM [inhibitor, partial curve].

For `Cc1occc1C(=O)N[C@@H]1CN(S(C)(=O)=O)C[C@H]1CN(C)C`, which Potency is on record?
The Potency was inconclusive: 39.8 µM [inhibitor, partial curve].

For `Cc1ccccc1C(=O)N1CCC(n2cc(-c3nc(-c4ccccc4)no3)nn2)C1` (stereo not given), which Potency is on record?
The Potency was inconclusive: 44.7 µM [inhibitor, partial curve].

`Cc1cc(CN(C)C(=O)c2cc(CN3CCC(Cc4ccccc4)CC3)on2)n[nH]1` was tested. Which “activity change, negative = inhibition” value did it give?
The value was inactive: -0.0431%.

How did the “activity change, negative = inhibition” value turn out when `CC(C)NC(=O)C[C@@H]1C[C@H]2O[C@H](CNCc3ccccc3Cl)[C@@H](O)[C@H]2O1` was run?
Its value is inactive: -1.32% [at 172 µM].

For `COCCOc1ccc2c(n1)CCN(C(=O)NCCC(C)C)C2`, which Potency is on record?
The Potency was active: 14.1 µM.

`Cc1ccc(C2Cn3nnc(C(=O)N4CCC(C(=O)NC5CCN(C)CC5)CC4)c3CO2)cc1` (stereo not given) was tested. Which Potency did it give?
Its Potency is inconclusive: 44.7 µM [inhibitor, partial curve].

For `O=C(c1cc(F)ccc1F)N1CC(Oc2cccc(-c3nc(-c4ccccc4)no3)c2)C1`, which Potency is on record?
The Potency was inconclusive: 8.91 µM [inhibitor, full curve].

Which Potency does the source give for `O=C(c1ccncc1)N1CCC(n2cc(-c3nc(-c4ccccc4)no3)nn2)CC1` here?
The Potency was inconclusive: 100 µM [inhibitor, single point].

Which “activity change, negative = inhibition” value does the source give for `N#Cc1cccc(NC(=O)N[C@H]2CO[C@H]3[C@@H]2OC[C@@H]3Nc2nccc(C3CCCC3)n2)c1` here?
Its value is inactive: 14.3% [at 172 µM].

`Cc1cc(-c2cc3c(cn2)CN(Cc2cccc(F)c2)CCN3)ccn1` was tested. Which Potency did it give?
The Potency was active: 15.8 µM.

For `CC(=O)NC1(C)CCN(Cc2cccc(Nc3cccc(Cl)c3)c2)C1` (stereo not given), which Potency is on record?
Its Potency is inconclusive: 63.1 µM [inhibitor, full curve].

Which Potency does the source give for `O=C(NCc1ccc2c(c1)OCO2)C1CCN(c2cc(C(F)(F)F)ncn2)CC1` here?
The Potency was active: 10 µM.

Which “activity change, negative = inhibition” value does the source give for `COCCn1c2c(c(=O)n1-c1ccccc1)CCN(C(=O)c1cccc(O)c1)C2` here?
The value was inactive: -7.44% [at 172 µM].

`COc1cccc(-c2nc3c([nH]2)CC(C)(C)CNC3=O)c1OC` was tested. Which Potency did it give?
The Potency was inconclusive: 39.8 µM [inhibitor, full curve].

`Cc1nnc(-c2cc(-c3ccc(N4CCOCC4)cc3)ccn2)n1C1CCCCC1` was tested. Which Potency did it give?
The Potency was inconclusive: 112 µM [inhibitor, single point].

How did the Potency turn out when `CC(CNC(=O)C1CCN(C(=O)c2ncn3c2COC(c2ccc(F)cc2)C3)CC1)c1ccccc1` (stereo not given) was run?
The Potency was inconclusive: 50.1 µM [inhibitor, partial curve].

How did the Potency turn out when `Cc1nc(CN2CC3(CCN(C)C3)c3cc(C(=O)Nc4ccc(F)cc4)ccc32)cs1` (stereo not given) was run?
Its Potency is inconclusive: 79.4 µM [inhibitor, partial curve].

Which Potency does the source give for `Cn1cc(CN2CCCN(C(=O)c3ccco3)CC2)c(-c2ccc(C3CCCCC3)cc2)n1` here?
The Potency was inconclusive: 44.7 µM [inhibitor, partial curve].

Which Potency does the source give for `C[C@H](C(=O)NCCN1CCOCC1)C1CC[C@@]2(C)Cc3sc(NC(=O)CC(C)(C)C)nc3[C@@H](C)[C@@H]2[C@H]1O` (stereo not given in full) here?
Its Potency is inconclusive: 44.7 µM [inhibitor, partial curve, poor fit].

With `O=C(C1CCOC1)N1CC(Oc2ccc(-c3nc(-c4ccccc4)no3)cc2)C1` (stereo not given) as the molecule, how does the Potency read?
Its Potency is active: 14.1 µM.

How did the Potency turn out when `O=C(NCc1cnccn1)c1ccc(-c2ncc3cnc(C4=CCOCC4)cn23)cc1` was run?
Its Potency is inconclusive: 126 µM [inhibitor, single point].
